According to the supplement of paper PMC4604168 (melanoma cell lines):
Some of the results follow. Most values come without repeats; read them as rough.

How the values were obtained:
Test in all cases: cell count relative to DMSO control; melanoma cells; higher = more viable cells
Conditions in all cases: library dose: low library concentration; 72 h
WM115 = test system: WM115
WM1716 = test system: WM1716
WM1745 = test system: WM1745
WM3526 = test system: WM3526
WM3619 = test system: WM3619
WM451Lu = test system: WM451Lu
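Also: cell number obtained by counting DAPI-stained nuclei in high-throughput microscope images with image analysis software, screen run in 1,536-well plates.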

SMILES	cell count (WM115)	cell count (WM1716)	cell count (WM1745)	cell count (WM3526)	cell count (WM3619)	cell count (WM451Lu)
Cc1cc(Nc2cc(N3CCN(C)CC3)nc(Sc3ccc(NC(=O)C4CC4)cc3)n2)n[nH]1 [Tozasertib] + CN1CCN(c2ccc3nc(-c4c(N)c5c(F)cccc5[nH]c4=O)[nH]c3c2)CC1 [Dovitinib] (first compound 0.006 µM, partner dose 0.1 µM)	97.8%	103%	76.3%	90.6%	82.5%	82.8%
N#CC[C@H](C1CCCC1)n1cc(-c2ncnc3[nH]ccc23)cn1 [ruxolitinib] + O=c1[nH]nc(Sc2ncc([N+](=O)[O-])s2)n1-c1ccc2c(c1)OCCO2 [BI78D3] (first compound 1 µM, partner dose 0.2 µM)	105%	96.4%	92.8%	113%	93.6%	85.3%
Cc1cc(Nc2cc(N3CCN(C)CC3)nc(Sc3ccc(NC(=O)C4CC4)cc3)n2)n[nH]1 [Tozasertib] + Cn1nnc2c(C(N)=O)ncn2c1=O [temozolomide] (first compound 0.006 µM, partner dose 2 µM)	86.6%	75.2%	94.6%	78.3%	90.2%	87.1%
Cc1cc(Nc2cc(N3CCN(C)CC3)nc(Sc3ccc(NC(=O)C4CC4)cc3)n2)n[nH]1 [Tozasertib] + O=C(O)c1ccc(-c2c[nH]c3ncc(-c4ccccc4)cc23)cc1C1CCCC1 [GSK650394] (first compound 0.006 µM, partner dose 0.16 µM)	99%	89.4%	99.7%	86.2%	85.3%	103%
N#CC[C@H](C1CCCC1)n1cc(-c2ncnc3[nH]ccc23)cn1 [ruxolitinib] + CC(C)C[C@H](NC(=O)[C@H](Cc1ccccc1)NC(=O)c1cnccn1)B(O)O [Bortezomib] (first compound 1 µM, partner dose 0.001 µM)	112%	88.3%	90.5%	102%	61.6%	96.3%
CC[C@]1(O)C[C@H]2CN(CCc3c([nH]c4ccccc34)[C@@](C(=O)OC)(c3cc4c(cc3OC)N(C=O)[C@H]3[C@@](O)(C(=O)OC)[C@H](OC(C)=O)[C@]5(CC)C=CCN6CC[C@]43[C@@H]65)C2)C1 [vincristine] + COc1ccc(Cl)c(Nc2nc3ccccc3nc2NS(=O)(=O)c2cccc(NC(=O)C(C)(C)N)c2)c1 [XL147] (first compound 0.0001 µM, partner dose 0.8 µM)	58.6%	46.4%	84.7%	88.2%	66.8%	57.8%
Cc1cc(Nc2cc(N3CCN(C)CC3)nc(Sc3ccc(NC(=O)C4CC4)cc3)n2)n[nH]1 [Tozasertib] + Nc1nc(F)nc2c1ncn2[C@@H]1O[C@H](CO)[C@@H](O)[C@@H]1O [fludarabine] (first compound 0.006 µM, partner dose 0.2 µM)	75%	87.9%	78.3%	29.8%	94.3%	61.2%
Cc1cc(Nc2cc(N3CCN(C)CC3)nc(Sc3ccc(NC(=O)C4CC4)cc3)n2)n[nH]1 [Tozasertib] + OCCn1cc(-c2cnc3nnn(Cc4ccc5ncccc5c4)c3n2)cn1 [PF04217903] (first compound 0.006 µM, partner dose 1 µM)	91%	102%	90.6%	94.5%	78.5%	113%
N#CC[C@H](C1CCCC1)n1cc(-c2ncnc3[nH]ccc23)cn1 [ruxolitinib] + c1cc(-c2cnn3cc(-c4ccc(OCCN5CCCCC5)cc4)cnc23)ccn1 [Dorsomorphin] (first compound 1 µM, partner dose 0.4 µM)	118%	89%	86.7%	100%	112%	88.4%
Cc1cc(Nc2cc(N3CCN(C)CC3)nc(Sc3ccc(NC(=O)C4CC4)cc3)n2)n[nH]1 [Tozasertib] + O=C(O)C(=O)Nc1sc2c(c1C(=O)O)CCNC2 [TCS401] (first compound 0.006 µM, partner dose 1.66667 µM)	95.1%	100%	88.9%	102%	102%	113%
